Data taken from US20260265359A1 (Hoffmann-La Roche, published 2026).
Substitutions are numbered along the chain they refer to.

T1: recombinant human VEGF-A165 (human, UniProt P15692-4 27-191)
T1 sequence (looked up): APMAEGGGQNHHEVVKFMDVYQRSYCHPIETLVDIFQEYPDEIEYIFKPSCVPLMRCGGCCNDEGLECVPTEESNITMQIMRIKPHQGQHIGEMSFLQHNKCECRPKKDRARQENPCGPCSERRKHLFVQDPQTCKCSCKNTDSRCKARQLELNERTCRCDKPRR

T2: recombinant human IL-6R (human, UniProt P08887 20-365, limits assumed)
T2 construct: Recombinant protein used in ELISA and as SPR analyte; also called hIL-6R
T2 sequence (looked up): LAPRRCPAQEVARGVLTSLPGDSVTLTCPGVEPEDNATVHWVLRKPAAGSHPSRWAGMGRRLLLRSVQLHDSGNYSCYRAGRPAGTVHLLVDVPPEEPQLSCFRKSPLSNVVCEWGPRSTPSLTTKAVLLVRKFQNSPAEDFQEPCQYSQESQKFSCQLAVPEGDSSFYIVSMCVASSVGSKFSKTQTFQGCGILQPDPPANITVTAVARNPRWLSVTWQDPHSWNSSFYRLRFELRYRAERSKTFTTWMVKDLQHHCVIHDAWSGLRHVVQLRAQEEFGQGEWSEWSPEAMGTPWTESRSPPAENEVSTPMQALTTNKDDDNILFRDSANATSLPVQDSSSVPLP

B1: EB-105BId1 (other)
fusion polypeptide (IL-6R sdAb, VEGFR-1-D2, VEGFR-2-D3, IgG1 Fc, Ang-2-binding peptide): EVQLVESGGGLVQAGGSLRLSCAASGDDLSSVDMGWYRQAPGKGLEFVGVISRGGGSTYYVDSVQGRFTISRDNAKNTVYLQMNSLRAEDTAVYYCKTEIPYFDDYWGQGTLVTVSSGGSGGGSGGGGSGGGGGSGGGGSDTGRPFVEMYSEIPEIIHMTEGRELVIPCRVTSPNITVTLKKFPLDTLIPDGKRIIWDSRKGFIISNATYKEIGLLTCEATVNGHLYKTNYLTHRQTNTIIDVVLSPSHGIELSVGEKLVLNCTARTELNVGIDFNWEYPSSKHQHKKLVNRDLKTQSGSEMKKFLSTLTIDGVTRSDQGLYTCAASSGLMTKKNSTFVRVHEK[human IgG1 Fc skipped]GGGSGGGGSAQTNFMPMDDLEQRLYEQFILQQGLE
notes: also called MFDDHD003
B2: EB-105BId3 (other)
fusion polypeptide (IL-6R sdAb, VEGFR-1-D2, VEGFR-2-D3, IgG1 Fc, Ang-2-binding peptide): B1 fusion polypeptide (IL-6R sdAb, VEGFR-1-D2, VEGFR-2-D3, IgG1 Fc, Ang-2-binding peptide) with D27G, G54T, Y102G, F103G
notes: also called MFDDHD005
B3: EB-105BId2 (other)
fusion polypeptide (Ang-2-binding peptide, VEGFR-1-D2, VEGFR-2-D3, IgG1 Fc, IL-6R sdAb): AQTNFMPMDDLEQRLYEQFILQQGLEGGGGSGGGGSGGGGSSDTGRPFVEMYSEIPEIIHMTEGRELVIPCRVTSPNITVTLKKFPLDTLIPDGKRIIWDSRKGFIISNATYKEIGLLTCEATVNGHLYKTNYLTHRQTNTIIDVVLSPSHGIELSVGEKLVLNCTARTELNVGIDFNWEYPSSKHQHKKLVNRDLKTQSGSEMKKFLSTLTIDGVTRSDQGLYTCAASSGLMTKKNSTFVRVHEK[human IgG1 Fc skipped]GGGSGGGGSGGGGSEVQLVESGGGLVQAGGSLRLSCAASGDDLSSVDMGWYRQAPGKGLEFVGVISRGGGSTYYVDSVQGRFTISRDNAKNTVYLQMNSLRAEDTAVYYCKTEIPYFDDYWGQGTLVTVSS
notes: also called MFDDHD004
B4: EB-105BId4 (other)
fusion polypeptide (Ang-2-binding peptide, VEGFR-1-D2, VEGFR-2-D3, IgG1 Fc, IL-6R sdAb): AQTNFMPMDDLEQRLYEQFILQQGLEGGGGSGGGGSGGGGSSDTGRPFVEMYSEIPEIIHMTEGRELVIPCRVTSPNITVTLKKFPLDTLIPDGKRIIWDSRKGFIISNATYKEIGLLTCEATVNGHLYKTNYLTHRQTNTIIDVVLSPSHGIELSVGEKLVLNCTARTELNVGIDFNWEYPSSKHQHKKLVNRDLKTQSGSEMKKFLSTLTIDGVTRSDQGLYTCAASSGLMTKKNSTFVRVHEK[human IgG1 Fc skipped]GGGSGGGGSGGGGSEVQLVESGGGLVQAGGSLRLSCAASGGDLSSVDMGWYRQAPGKGLEFVGVISRTGGSTYYVDSVQGRFTISRDNAKNTVYLQMNSLRAEDTAVYYCKTEIPGGDDYWGQGTLVTVSS
notes: also called MFDDHD006
B5: EB-105BIe1 (other)
fusion polypeptide (Ang-2 sdAb, VEGFR-1-D2, VEGFR-2-D3, IgG1 Fc, IL-6R sdAb): EVQLVESGGGLVQPGGSLRLSCAASGLYFSSYDIAWVRQAPGKGLEFVSAIDVSGEHTYYADSVKGRFTISRDNAKNTLYLQMNSLRAEDTAVYYCNAVKWSDYGPDNDYWGQGTLVTVSSGGGGSGGGGSGGGGSSDTGRPFVEMYSEIPEIIHMTEGRELVIPCRVTSPNITVTLKKFPLDTLIPDGKRIIWDSRKGFIISNATYKEIGLLTCEATVNGHLYKTNYLTHRQTNTIIDVVLSPSHGIELSVGEKLVLNCTARTELNVGIDFNWEYPSSKHQHKKLVNRDLKTQSGSEMKKFLSTLTIDGVTRSDQGLYTCAASSGLMTKKNSTFVRVHEK[human IgG1 Fc skipped]GGGSGGGGSGGGGSEVQLVESGGGLVQAGGSLRLSCAASGDDLSSVDMGWYRQAPGKGLEFVGVISRGGGSTYYVDSVQGRFTISRDNAKNTVYLQMNSLRAEDTAVYYCKTEIPYFDDYWGQGTLVTVSS
notes: also called MFDDHD007
B6: EB-105BIe2 (other)
fusion polypeptide (IL-6R sdAb, VEGFR-1-D2, VEGFR-2-D3, IgG1 Fc, Ang-2 sdAb): EVQLVESGGGLVQAGGSLRLSCAASGDDLSSVDMGWYRQAPGKGLEFVGVISRGGGSTYYVDSVQGRFTISRDNAKNTVYLQMNSLRAEDTAVYYCKTEIPYFDDYWGQGTLVTVSSGGGGSGGGGSGGGGSSDTGRPFVEMYSEIPEIIHMTEGRELVIPCRVTSPNITVTLKKFPLDTLIPDGKRIIWDSRKGFIISNATYKEIGLLTCEATVNGHLYKTNYLTHRQTNTIIDVVLSPSHGIELSVGEKLVLNCTARTELNVGIDFNWEYPSSKHQHKKLVNRDLKTQSGSEMKKFLSTLTIDGVTRSDQGLYTCAASSGLMTKKNSTFVRVHEK[human IgG1 Fc skipped]GGGSGGGGSGGGGSEVQLVESGGGLVQPGGSLRLSCAASGLYFSSYDIAWVRQAPGKGLEFVSAIDVSGEHTYYADSVKGRFTISRDNAKNTLYLQMNSLRAEDTAVYYCNAVKWSDYGPDNDYWGQGTLVTVSS
notes: also called MFDDHD008

Biological target: T1, recombinant human VEGF-A165
Experiment: ELISA on plate-coated recombinant human VEGF-A165; anti-human IgG1-Fc-HRP, OD450
Experimental: (§1) After non-specific blocking using 1% BSA at 25° C. for 1 hour, a series of dilutions of test antibodies (“Abs”) were added into the coated wells and incubated at 25° C. for 1 hour. The bound Abs were detected using a secondary Ab (goat anti-human IgG1-Fc) conjugated with HRP followed by OD₄₅₀ reading.

EC50 [nM]	Binder
0.562	B1
0.365	B2
1.06	B3
0.734	B4
0.299	B5
0.462	B6

Biological target: T1, recombinant human VEGF-A165
Experiment: cell-based or functional assay

IC50, inhibition of VEGF-A165-stimulated VEGFR-2 NF-AT luciferase reporter (HEK-293), luminescence [nM]	Binder
0.304	B1
0.319	B2
0.3	B3
0.269	B4
0.572	B5
0.264	B6

Biological target: T2, recombinant human IL-6R
Experiment: ELISA on plate-coated recombinant human IL-6R; anti-human IgG1-Fc-HRP, OD450
Experimental: as §1
The same ELISA procedure was performed with recombinant human IL-6R. […] Vobarilizumab is a single domain antibody against IL-6R. B781402 and B781405 are bispecific fusion antibodies that inhibit VEGF-A, B, PIGF and IL-6R.

EC50 [nM]	Binder
0.117	B1
0.095	B2
0.298	B3
0.143	B4
0.175	B5
0.13	B6
